According to the supplement of paper PMC3334620:
Over roughly 33,000 sequences, “E-score (-0.5 to 0.5)” has its median near -0.054; the highest 2% begin near 0.39. The list shows a part of the results.

What follows are sequences tested against Ylr278c (UniProt Q05854) (assay: PBM E-score (8-mer binding enrichment) (E-score (-0.5 to 0.5)); higher = stronger / more preferred TF binding; most listed sequences are background and not binding sites). Settings: protein concentration: 200 nM; construct: GST-DNA-binding domain.
Method in brief: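 E-scores (a modified Wilcoxon-Mann-Whitney statistic) were assigned by the Universal PBM Analysis Suite to every ungapped eight-base word pooled with its reverse complement. The input came from universal all-10-mer Agilent arrays made double-stranded by primer extension and probed with GST-tagged yeast transcription factors at about 100-200 nM. Fluorescent anti-GST detected bound protein, and masliner normalised the scans.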

| Sequence | PBM E-score |
| --- | --- |
| AGTGGTGG | -0.158 |
| GAGCTGTA | -0.156 |
| CCCTGTTA | -0.0341 |
| GGCGGCAC | 0.191 |
| CATGTGCG | 0.0683 |
| AAATAAAT | 0.0127 |
| TATAGATA | -0.159 |
| CTGGGTCA | -0.205 |
| ATTCAACG | 0.0851 |
| ATTGTAAA | -0.0131 |
| ACCTATAC | -0.275 |
| ATGGACTC | -0.0683 |
| GGCCTGCA | -0.0835 |
| ATACTTAG | -0.186 |
| AGTTTTCG | 0.0339 |
| GGGGCAAC | -0.169 |
| CCCTCATA | -0.16 |
| CTAAACGC | 0.0688 |
| GCATGGGC | -0.219 |
| ATTTCTGA | -0.257 |
| TACCACCA | 0.0608 |
| AAGCCCCC | -0.0952 |
| AGACTAAC | -0.0964 |
| ACCGTAAC | -0.0794 |

| Sequence | PBM E-score |
| --- | --- |
| AACCAGAT | -0.0169 |
| CGGACCAA | 0.331 |
| GGGAGTTA | 0.195 |
| CGGGTCTC | 0.198 |
| TGCTCGAA | -0.161 |
| CCCTAAAC | -0.0595 |
| CGCGAGCA | 0.00146 |
| ATAGAATG | -0.167 |
| GTTTCTGA | 0.0572 |
| AGTCTACA | -0.154 |
| CAACTGTG | -0.155 |
| AGGGGGCG | -0.0422 |
| ATACTCAA | 0.0145 |
| CTCCAACA | -0.109 |
| CATACGAC | -0.137 |
| CATTAGGC | -0.211 |
| AGTTCAAC | 0.0985 |
| CATGCCGA | 0.217 |
| CTCTATAC | -0.129 |
| AGCGCTAA | 0.143 |
| AAGTTAAG | -0.0926 |
| ATTAGTGG | 0.0575 |
| ACCGTTTA | 0.0458 |
| CAATCCCC | 0.16 |

| Sequence | PBM E-score |
| --- | --- |
| AGACCTAA | -0.175 |
| TCTAGAAA | -0.184 |
| TAATACGA | -0.145 |
| GGACTCCC | 0.0565 |
| AAATACAG | -0.0403 |
| GATATGAC | 0.00138 |
| AATGTGGT | -0.0805 |
| CGGACTCA | 0.384 |
| TAACAAGA | -0.0521 |
| AATAACCC | 0.199 |
| ATGCAGTG | -0.131 |
| AATTCGCT | 0.129 |
| AGCGTGAG | -0.203 |
| ACCTTCCA | -0.165 |
| AGGGCTTA | -0.229 |
| ACGACCTA | -0.0853 |
| AACGCGAT | 0.091 |
| ATTAGAAT | -0.0713 |
| CGCCAGAG | -0.122 |
| CTGCAAAA | -0.0962 |
| ACGCATTG | -0.221 |
| ATTACAGC | -0.167 |
| AAAAGATG | -0.178 |
| CAGAACCA | -0.314 |

| Sequence | PBM E-score |
| --- | --- |
| CCGAGATC | 0.3 |
| GATCGTAA | -0.273 |
| CCCAACTC | 0.0932 |
| CAAGGTTC | -0.00539 |
| AAAACCTT | -0.012 |
| GACAAGAA | -0.00345 |
| GACGTCGC | -0.27 |
| CATGGGCC | -0.0231 |
| ATATCGGC | 0.319 |
| CTATCCTC | -0.0361 |
| TACCAGTA | -0.128 |
| GGAAGTAC | 0.253 |
| GTGCTGAA | -0.106 |
| GTCCCGAC | 0.234 |
| ACCGACGA | 0.142 |
| CATTAGGA | -0.171 |
| GGGTGGAA | -0.0907 |
| GGTCGTAC | -0.0166 |
| TATTAAAA | 0.0268 |
| GAAGACTC | -0.134 |
| ACCGCGGT | 0.178 |
| CCCTTCCG | 0.277 |
